# According to the supplement of paper PMC8728848:
# Some of the results follow.
# Columns and labels:
# Test in all cases: glycan array binding signal (z-score within array); higher = stronger binding
# Conditions in all cases: glycan notation: IUPAC condensed, linker removed
# [1] = target: Gal(b1-3)[Fuc(a1-4)]GlcNAc(b1-3)Gal(b1-4)[Fuc(a1-3)]GlcNAc
# How it was run: (§1)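 Negative Z-scores can be read as non-binding. The Z-score is calculated within each array and then averaged across arrays of one protein sequence at different concentrations or buffers and across linkers. Arrays, 3228 in all, were curated from the Consortium for Functional Glycomics database and kept only where the protein sequence was available.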
# [2] = target: Gal(b1-3)[GlcNAc(b1-6)]GalNAc
# How it was run: as §1
# [3] = target: Gal(b1-3)[Neu5Ac(a2-6)]GalNAc
# How it was run: as §1
# [4] = target: Gal(b1-3)[Neu5Ac(a2-6)]GlcNAc(b1-6)Gal(b1-4)Glc
# How it was run: as §1
# [5] = target: Gal(b1-3)[Neu5Ac(b2-6)]GalNAc
# How it was run: as §1
# [6] = target: Gal(b1-4)GalNAc(a1-3)[Fuc(a1-2)]Gal(b1-4)GlcNAc
# How it was run: as §1
# [7] = target: Gal(b1-4)GalNAc(b1-3)[Fuc(a1-2)]Gal(b1-4)GlcNAc
# How it was run: as §1
# Gal(b1-4)Glc = target: Gal(b1-4)Glc
# How it was run: as §1
# Gal(b1-4)Glc6S = target: Gal(b1-4)Glc6S
# How it was run: as §1
# Gal(b1-4)GlcNAc = target: Gal(b1-4)GlcNAc
# How it was run: as §1
# [8] = target: Gal(b1-4)GlcNAc(a1-6)Gal(b1-4)GlcNAc
# How it was run: as §1
# [9] = target: Gal(b1-4)GlcNAc(b1-2)Man(a1-3)[Gal(b1-4)GlcNAc(b1-2)Man(a1-6)]Man(b1-4)GlcNAc(b1-4)GlcNAc
# How it was run: as §1
# [10] = target: Gal(b1-4)GlcNAc(b1-3)Gal(b1-3)GlcNAc
# How it was run: as §1
# [11] = target: Gal(b1-4)GlcNAc(b1-3)Gal(b1-4)Glc
# How it was run: as §1
# [12] = target: Gal(b1-4)GlcNAc(b1-3)Gal(b1-4)GlcNAc
# How it was run: as §1
# [13] = target: Gal(b1-4)GlcNAc(b1-3)Gal(b1-4)GlcNAc(b1-3)Gal(b1-4)GlcNAc
# How it was run: as §1
# [14] = target: Gal(b1-4)GlcNAc(b1-3)Gal(b1-4)[Fuc(a1-3)]GlcNAc(b1-3)Gal(b1-4)[Fuc(a1-3)]GlcNAc
# How it was run: as §1
# [15] = target: Gal(b1-4)GlcNAc(b1-3)GalNAc
# How it was run: as §1
# [16] = target: Gal(b1-4)GlcNAc(b1-3)[Gal(b1-4)GlcNAc(b1-6)]Gal(b1-4)GlcNAc
# How it was run: as §1
# [17] = target: Gal(b1-4)GlcNAc(b1-3)[GlcNAc(b1-6)]Gal(b1-4)GlcNAc
# How it was run: as §1
# [18] = target: Gal(b1-4)GlcNAc(b1-6)Gal(b1-4)GlcNAc
# How it was run: as §1
# [19] = target: Gal(b1-4)GlcNAc(b1-6)Gal(b1-4)GlcNAc(b1-6)GalNAc
# How it was run: as §1
# [20] = target: Gal(b1-4)GlcNAc(b1-6)GalNAc
# How it was run: as §1
# [21] = target: Gal(b1-4)GlcNAc(b1-6)[Gal(b1-3)]GalNAc
# How it was run: as §1
# Gal3S(b1-3)GalNAc = target: Gal3S(b1-3)GalNAc
# How it was run: as §1
# Gal3S(b1-3)GlcNAc = target: Gal3S(b1-3)GlcNAc
# How it was run: as §1
# [22] = target: Gal3S(b1-3)[Fuc(a1-4)]GlcNAc
# How it was run: as §1
# Gal3S(b1-4)Glc = target: Gal3S(b1-4)Glc
# How it was run: as §1
# Gal3S(b1-4)Glc6S = target: Gal3S(b1-4)Glc6S
# How it was run: as §1
# Gal3S(b1-4)GlcNAc = target: Gal3S(b1-4)GlcNAc
# How it was run: as §1
# Gal3S(b1-4)GlcNAc6S = target: Gal3S(b1-4)GlcNAc6S
# How it was run: as §1
# [23] = target: Gal3S(b1-4)[Fuc(a1-3)]Glc
# How it was run: as §1
# Gal3S4S(b1-4)GlcNAc = target: Gal3S4S(b1-4)GlcNAc
# How it was run: as §1
# Gal3S6S(b1-4)GlcNAc = target: Gal3S6S(b1-4)GlcNAc
# How it was run: as §1
# Gal3S6S(b1-4)GlcNAc6S = target: Gal3S6S(b1-4)GlcNAc6S
# How it was run: as §1
# Gal4S(b1-4)GlcNAc = target: Gal4S(b1-4)GlcNAc
# How it was run: as §1
# Gal4S6S(b1-4)GlcNAc = target: Gal4S6S(b1-4)GlcNAc
# How it was run: as §1
binder,measurement,setting,value
"LSECtin (Homo sapiens), Q6UXB4 (protein) MEQESALRELRERVTQGLAEAGRGREDVRTELFRALEAVRLQNNSCEPCPTSWLSFEGSCYFFSVPKTTWAAAQDHCADASAHLVIVGGLDEQGFLTRNTRGRGYWLGLRAVRHLGKVQGYQWVDGVSLSFSHWNQGEPNDAWGRENCVMMLHTGLWNDAPCDSEKDGWICEKKAQLLTPPSALEPRPLQHVVSWGLLTSLAPGADCQRVFSSSSTAAESQKHLAQHSPVQPSAWALGPPCRPHPNSTHADPT",glycan array binding signal (z-score),[1],-0.241
same,glycan array binding signal (z-score),[2],-0.298
same,glycan array binding signal (z-score),[3],-0.299
same,glycan array binding signal (z-score),[4],-0.298
same,glycan array binding signal (z-score),[5],-0.305
same,glycan array binding signal (z-score),[6],-0.296
same,glycan array binding signal (z-score),[7],-0.236
same,glycan array binding signal (z-score),Gal(b1-4)Glc,-0.306
same,glycan array binding signal (z-score),Gal(b1-4)Glc6S,-0.299
same,glycan array binding signal (z-score),Gal(b1-4)GlcNAc,-0.298
same,glycan array binding signal (z-score),[8],-0.297
same,glycan array binding signal (z-score),[9],2.3
same,glycan array binding signal (z-score),[10],-0.293
same,glycan array binding signal (z-score),[11],-0.302
same,glycan array binding signal (z-score),[12],-0.297
same,glycan array binding signal (z-score),[13],-0.308
same,glycan array binding signal (z-score),[14],-0.289
same,glycan array binding signal (z-score),[15],-0.303
same,glycan array binding signal (z-score),[16],-0.28
same,glycan array binding signal (z-score),[17],-0.307
same,glycan array binding signal (z-score),[18],-0.301
same,glycan array binding signal (z-score),[19],-0.309
same,glycan array binding signal (z-score),[20],-0.297
same,glycan array binding signal (z-score),[21],-0.295
same,glycan array binding signal (z-score),Gal3S(b1-3)GalNAc,-0.29
same,glycan array binding signal (z-score),Gal3S(b1-3)GlcNAc,-0.279
same,glycan array binding signal (z-score),[22],0.3
same,glycan array binding signal (z-score),Gal3S(b1-4)Glc,-0.267
same,glycan array binding signal (z-score),Gal3S(b1-4)Glc6S,-0.291
same,glycan array binding signal (z-score),Gal3S(b1-4)GlcNAc,-0.283
same,glycan array binding signal (z-score),Gal3S(b1-4)GlcNAc6S,-0.279
same,glycan array binding signal (z-score),[23],-0.173
same,glycan array binding signal (z-score),Gal3S4S(b1-4)GlcNAc,-0.295
same,glycan array binding signal (z-score),Gal3S6S(b1-4)GlcNAc,-0.29
same,glycan array binding signal (z-score),Gal3S6S(b1-4)GlcNAc6S,-0.302
same,glycan array binding signal (z-score),Gal4S(b1-4)GlcNAc,-0.291
same,glycan array binding signal (z-score),Gal4S6S(b1-4)GlcNAc,-0.294
